According to PubChem BioAssay AID485341 (National Center for Advancing Translational Sciences (NCATS), 2010):
About 1,700 (0.52%) of roughly 330,000 compounds were called active. This list was built around the results that the source calls inconclusive (neither active nor inactive); the mix of calls is not that of the screen. The call rests on the fitted dose curve; in most records, active means well fitted inhibition curve with a large enough effect; inconclusive means small, poorly fitted or top-dose-only effect; inactive means no such curve, though single readings can be large or run the other way. Potencies beside an inconclusive call are fits to weak or partial responses and may not hold up.

target: Beta-lactamase (Escherichia coli (strain K12)) (UniProt P00811); test: qHTS Inhibitors of AmpC Beta-Lactamase (assay without detergent); details: AmpC nitrocefin hydrolysis, absorbance 480 nm, 0.0001% Triton; activity change, negative = inhibition: at 57.1 µM (top of the series) unless noted; further: nearly all actives have a fitted effect of over 20% in size;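 on activity change, negative = inhibition: plate controls were no compound for no effect and no enzyme for full effect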
Chain of UniProt P00811 (P00811 whole entry, looked up): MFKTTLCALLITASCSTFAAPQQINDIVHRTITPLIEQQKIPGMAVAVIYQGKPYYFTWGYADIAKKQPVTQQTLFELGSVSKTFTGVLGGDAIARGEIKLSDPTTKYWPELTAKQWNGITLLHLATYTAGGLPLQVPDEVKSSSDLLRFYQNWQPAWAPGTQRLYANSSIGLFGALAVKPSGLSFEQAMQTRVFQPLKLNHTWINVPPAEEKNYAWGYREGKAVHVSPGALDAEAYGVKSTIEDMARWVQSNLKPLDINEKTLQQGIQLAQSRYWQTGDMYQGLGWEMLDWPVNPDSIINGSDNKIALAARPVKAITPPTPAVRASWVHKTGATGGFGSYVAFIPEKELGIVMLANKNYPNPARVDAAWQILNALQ
Procedure, shortened: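 AmpC (5.3 nM in the dispensed reagent) in 20 mM phosphate pH 7.0 with 0.01% (detergent screen) or 0.0001% Triton X-100 was preincubated with compounds for 15 min at room temperature. Nitrocefin was then added from an 800 uM solution, and hydrolysis was followed at 480 nm.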
Potency means the concentration at half of the fitted maximal effect; tags describe the fitted curve by direction and shape.

Structure (SMILES)	Potency	activity change, negative = inhibition
COc1ccc(OC)c(-c2csc(NC(=O)CSc3ccc(Br)cc3)n2)c1	inconclusive: 12.6 µM [inhibitor, partial curve]	
COc1ccccc1NC(=O)c1cc2cc(Br)ccc2cc1O	inconclusive: 17.8 µM [inhibitor, partial curve]	
Cc1ccc(NC(=O)CSCC(=O)NNC(=O)c2ccoc2C)cc1	inconclusive: 35.5 µM [inhibitor, single point]	
Cc1cccc(C)c1NC(=O)C(=O)NCC1CCCN1S(=O)(=O)c1cccs1 (centres undefined)	inconclusive: 35.5 µM [inhibitor, single point]	
N#C/C(=C/c1ccc(-c2ccc(S(N)(=O)=O)cc2)o1)C(=O)Nc1ccccc1	active: 15.8 µM	
CC1CCc2c(nc3sc4c(c3c2N)CCCC4)C1 (centres undefined)		inactive: -35.7%
Cc1cc(N/N=C/c2ccc(O)cc2O)nc(-c2ccccc2O)n1	inconclusive: 3.55 µM [inhibitor, single point]	
Cc1ccc(C(CCN(Cc2ccccc2)C(=O)c2ccco2)c2ccco2)cc1 (centres undefined)	inconclusive: 11.2 µM [inhibitor, partial curve]	
Oc1ccc(-c2nnc(-c3ccccc3)c(-c3ccccc3)n2)cc1	inconclusive: 3.98 µM [inhibitor, full curve, poor fit]	
Cc1cc(-c2ccccc2)n(-c2cc(N/N=C/c3ccccc3O)ncn2)n1	inconclusive: 1.78 µM [inhibitor, partial curve]	
C=CCn1c(O)c(C(CC)=NCc2cc(OC)cc(OC)c2)c(=O)[nH]c1=O	inconclusive: 6.31 µM [inhibitor, single point]	
CC(/C=C/C=C/c1ccccc1)=N\NC(=O)c1cccnc1		inactive: -14.3%
Cc1ccc(O)c(CNc2nc3ccccc3[nH]2)c1	inconclusive: 15.8 µM [inhibitor, partial curve]	
c1ccc(C2=Nn3c(nnc3-c3cc(-c4ccccc4)n[nH]3)SC2)cc1	inconclusive: 7.94 µM [inhibitor, partial curve]	
Cc1ccc2sc(NNC(=O)c3cc(-c4cccs4)nc4ccccc34)nc2c1C	inconclusive: 17.8 µM [inhibitor, partial curve]	
CN(C(=O)COc1ccc(Cl)cc1Cl)C1(C)CCS(=O)(=O)C1 (centres undefined)	inconclusive: 39.8 µM [inhibitor, single point]	
CN(CC(=O)Nc1ccc(F)cc1)C(=O)COC(=O)Cc1c(F)cccc1Cl	inconclusive: 39.8 µM [inhibitor, single point]	
CC1=C/C(=N\S(=O)(=O)c2ccccc2)C(C(C)C)=CC1=O		inconclusive: -85.1% [inhibitor]
O=C(CNC(=O)c1n[nH]c2ccccc12)Nc1cc(Cl)ccc1Cl	inconclusive: 28.2 µM [inhibitor, single point]	
O=C(Cc1ccc(F)cc1)N1CCN(c2ccc(F)cc2)CC1		inactive: 15.3%
CCOC(=O)c1sc(NC(=O)CSc2nnnn2-c2ccc(C)c(C)c2)nc1C		inactive: -21.1%
CCOc1ccc(C(=O)OCC(=O)N2CCOCC2)cc1OCC		inactive: 0.504%
COc1ccc(-c2nnc(SC(C)C(=O)NNC(=O)c3ccc(C)cc3)o2)cc1 (centres undefined)		inactive: -25.5%

Structure (SMILES)	Potency	activity change, negative = inhibition
COCCOC(=O)c1[nH]c2c(c1C)C(=O)CC(c1ccc(F)cc1)C2 (centres undefined)		inactive: -3.67%
Cc1cc([N+](=O)[O-])c(N2CCC[C@@H]2C(=O)O)c([N+](=O)[O-])c1	inconclusive: 6.31 µM [inhibitor, single point]	
O=C(N/N=C\c1ccc(Cl)s1)C1COc2ccccc2O1 (centres undefined)	inconclusive: 39.8 µM [inhibitor, single point]	
O=c1c2ccccc2nnn1CSc1nnc(-c2cccnc2)n1-c1ccccc1F		inactive: 20.8%
COc1ccc(C(CNC(=O)CCNC(=O)c2ccccc2OC)N2CCCC2)cc1 (centres undefined)	inconclusive: 25.1 µM [inhibitor, single point]	
CCN(C(=O)COC(=O)c1oc2ccc(OC)cc2c1C)C1CCCCC1	inconclusive: 39.8 µM [inhibitor, single point]	
Cc1nn(-c2ccccc2)c2c1C(c1ccc(F)cc1F)C(C#N)=C(N)O2 (centres undefined)	inconclusive: 31.6 µM [inhibitor, partial curve]	
COc1cccc(/C=C/C(=O)Nc2ccc3c(c2)OCCO3)c1	inconclusive: 1.58 µM [inhibitor, full curve, poor fit]	
FC(F)(F)c1cccc(N2CCN(Cc3cccnc3)CC2)c1	inconclusive: 8.91 µM [inhibitor, single point]	
Cc1nc(NCCc2ccccc2F)c(C#N)c(C)c1[N+](=O)[O-]	inconclusive: 0.126 µM [inhibitor, full curve, poor fit]	
C=CCC(C)(NCc1ccccc1)c1ccccc1 (centres undefined)	inconclusive: 6.31 µM [inhibitor, single point]	
CC(=O)Oc1cc2c(C(=O)NCc3ccncc3)c(C)oc2c2ccccc12		inactive: 85.4%
COc1ccc(NC2CC(=O)N(C(C)C)C2=O)cc1 (centres undefined)		inactive: -18.7%
Cc1ccc(C(CC(=O)N2CCCC2)c2ccccc2)c(O)c1 (centres undefined)		inactive: -3.43%
Cc1cc(C)cc(NC(=O)Nc2ccc(N3CCCCC3)cc2)c1	active: 15.8 µM	
CCN(CC)S(=O)(=O)c1ccc(NC(=O)Cn2c(=O)sc3ccccc32)cc1	inconclusive: 5.62 µM [inhibitor, single point]	
Cc1nn(-c2ccccc2)c(C)c1/C=N/NC(=O)CSc1nc2ccccc2c(=O)n1-c1ccccc1	inconclusive: 2.51 µM [inhibitor, full curve, poor fit]	
Cc1cccc(OCc2nc(C#N)c(NCCN(C)C)o2)c1	active: 2.24 µM	
C(=N\Nc1nc(Nc2ccccc2)nc(N2CCCCC2)n1)/c1ccco1	inconclusive: 14.1 µM [inhibitor, partial curve]	
Cc1ccc(-n2cccc2/C=C2/NC(=O)N(CC(=O)Nc3cccc(C)c3)C2=O)cc1	active: 31.6 µM	
C=CCN(c1ccccc1)S(=O)(=O)c1ccc(Cl)c(C(=O)OCC(=O)c2[nH]c(C)c(C(C)=O)c2C)c1	inconclusive: 7.94 µM [inhibitor, full curve, poor fit]	
Cc1ccc(CSc2nnc(SCC(=O)N/N=C/C=C/c3ccco3)s2)cc1	inconclusive: 31.6 µM [inhibitor, single point]	
O=C(COC(=O)c1ccccc1Oc1ccccc1)NC1CCS(=O)(=O)C1 (centres undefined)	inconclusive: 0.631 µM [inhibitor, partial curve, poor fit]	

Structure (SMILES)	Potency	activity change, negative = inhibition
Cc1nc(NC(=O)CN2CC(C)OC(C)C2)sc1C(=O)N(C)C (centres undefined)		inactive: -13.4%
COc1ccc(/C=N/NC(=O)Nc2cccc3nsnc23)cc1OC	inconclusive: 3.98 µM [inhibitor, full curve]	
Cc1csc2ncc(C(=O)N3CCCc4ccccc43)c(=O)n12	active: 3.55 µM	
Cc1cc(N)c(-n2cc3c(=O)n(C)c(=O)n(C)c3c2)cc1C		inactive: 31.9%
O=C(CCCN1C(=O)c2ccccc2C1=O)Nc1c2c(nc3c1CCC3)CCC2		inactive: 3.96%
CCOc1ccc(CCNC(=O)COC(=O)Cn2nc(C)c([N+](=O)[O-])c2C)cc1OCC	inconclusive: 35.5 µM [inhibitor, single point]	
O=C(Nc1ccc(S(=O)(=O)Nc2ncccn2)cc1)C12CC3CC(CC(C3)C1)C2	inconclusive: 8.91 µM [inhibitor, full curve, poor fit]	
O=C(NCCc1ccc(F)cc1)C(=O)NCC1CCCN1S(=O)(=O)c1ccccc1 (centres undefined)	inconclusive: 31.6 µM [inhibitor, single point]	
CCOc1ccc(/C=C2\SC(=S)N(CC(=O)Nc3ccccn3)C2=O)cc1	inconclusive: 22.4 µM [inhibitor, partial curve]	
Cc1ccc(N=c2c([N+](=O)[O-])nn(-c3ccc4c(c3)OCCO4)n2O)cc1F	inconclusive: 15.8 µM [inhibitor, partial curve]	
CC(C)(C)CC(=O)Nc1nnc(-c2cccs2)s1		inconclusive: -20.1% [inhibitor]
CC[C@]12c3[nH]c4cc(CCC(=O)N(C)C)ccc4c3CCN1C(=O)[C@@H](CC(=O)NCc1ccco1)C[C@@H]2C(=O)N1CCN(C(=O)C2CC2)CC1		inactive: 134%
O=c1cc(CN2CCN(c3ccccc3F)CC2)c2cc3c(cc2o1)CCCC3		inactive: -27.7%
O=C1Nc2ccccc2Oc2cc([N+](=O)[O-])cc(Oc3ccccc3)c21	inconclusive: 39.8 µM [inhibitor, single point]	
O=C(CCNc1ccc(F)cc1)c1cc2ccccc2o1		inactive: -38.9%
CSc1nnc(-c2ccco2)c(-c2ccco2)n1		inactive: -20.8%
CC(OC(=O)c1ccc([N+](=O)[O-])s1)C(=O)NC1CCCCC1C (centres undefined)		inactive: -14.6%
Cc1csc2ncc(C(=O)NCCc3ccccc3)c(=O)n12	inconclusive: 0.631 µM [inhibitor, full curve, poor fit]	
Cc1ccc(-n2c(=O)[nH]cc(C(=O)N3CCc4ccccc43)c2=O)cc1C	active: 10 µM	
Cc1ccc(N2CC(NC(=O)C3CC3)CC2=O)cc1 (centres undefined)	inconclusive: 39.8 µM [inhibitor, single point]	
Clc1ccc(-c2ccnc(Oc3ccc4ccccc4c3)n2)cc1	inconclusive: 4.47 µM [inhibitor, single point]	
O=C1CCCC2=C1C(c1cn(-c3ccccc3)nc1-c1cccs1)c1c([nH]c(=O)[nH]c1=O)N2 (centres undefined)	inconclusive: 8.91 µM [inhibitor, full curve, poor fit]	
CCOc1ccc(CN2C(=O)CCC2(C)C(=O)NCc2cccnc2)cc1 (centres undefined)	inconclusive: 5.01 µM [inhibitor, full curve, poor fit]	
